# Whole data set: some 2,900 compounds, median “NF-kB SEAP reporter activity, fold change vs agonist alone” near 0.99, cut for the highest 2% near 2.6. The list shows a part of the results.
# Assays:
# RAW-Dual [1] = experiment: NF-kB SEAP reporter activity, fold change vs agonist alone; cytotoxicity flag (confluency mask): not cytotoxic; higher = enhanced NF-kB activity
# How it was run: (§1)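 RAW-Dual macrophages were seeded in DMEM at 50,000 cells/well in 384-well plates, given 50 nL of library stock by pin tool, and given a PRR agonist 1 h later. Plates were held at 37 °C, 5% CO2 for 20 hours, after which supernatant was read for IRF by QuantiLuc luminescence and for NF-κB by QuantiBlue absorbance at 620 nm. Reporter activity is expressed as fold change over wells that received agonist alone. A well was called cytotoxic when IncuCyte confluency fell below 70% of agonist controls in both mask sets.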
# RAW-Dual [2] = experiment: NF-kB SEAP reporter activity, fold change vs agonist alone; higher = enhanced NF-kB activity
# How it was run: as §1
# RAW-Dual [3] = experiment: NF-kB SEAP reporter activity, fold change vs agonist alone; cytotoxicity flag (confluency mask): cytotoxic (confluency <70% of control); higher = enhanced NF-kB activity
# How it was run: as §1
# [4] = agonist: ODN 1826 (TLR9) 0.5 ug/mL
# [5] = library stock concentration (final ~1000-fold dilution): 10 mM, cytotoxicity flag (confluency mask): not cytotoxic, agonist: Imiquimod (TLR7) […]
# [6] = library stock concentration (final ~1000-fold dilution): 10 mM, cytotoxicity flag (confluency mask): not cytotoxic, agonist: MPLA (TLR4) […]
# [7] = agonist: Pam2CSK4 (TLR2/6) 0.1 ug/mL
# [8] = agonist: Pam3CSK4 (TLR2/1) 0.1 ug/mL
# [9] = library stock concentration (final ~1000-fold dilution): 10 mM, cytotoxicity flag (confluency mask): cytotoxic (confluency <70% of control), agonist: Imiquimod (TLR7) […]
# [10] = library stock concentration (final ~1000-fold dilution): 10 mM, cytotoxicity flag (confluency mask): cytotoxic (confluency <70% of control), agonist: MPLA (TLR4) […]
smiles,measurement,setting,value
Oc1cc(CNC(=S)/C=C/c2cc(O)c(O)c(Br)c2)cc(O)c1O (library stock concentration (final ~1000-fold dilution): 10 mM),NF-kB SEAP reporter activity,RAW-Dual [1]; agonist: LPS (TLR4) 0.1 ug/mL,3.51
same,NF-kB SEAP reporter activity,RAW-Dual [1]; [4],2.77
CC(C)(C)NCC(O)COc1nsnc1N1CCOCC1.O=C(O)/C=C\C(=O)O (stereo not given),NF-kB SEAP reporter activity,RAW-Dual [2]; [5],0.89
same,NF-kB SEAP reporter activity,RAW-Dual [2]; [6],0.998
CC(C)(C)NCC(O)COc1nsnc1N1CCOCC1.O=C(O)/C=C\C(=O)O (stereo not given) (library stock concentration (final ~1000-fold dilution): 10 mM),NF-kB SEAP reporter activity,RAW-Dual [1]; agonist: LPS (TLR4) 0.1 ug/mL,1.25
same,NF-kB SEAP reporter activity,RAW-Dual [1]; [4],0.888
same,NF-kB SEAP reporter activity,RAW-Dual [1]; [7],1.26
same,NF-kB SEAP reporter activity,RAW-Dual [1]; [8],1.08
O=C(NC(NC(=S)Nc1ccc(F)c([N+](=O)[O-])c1)C(Cl)(Cl)Cl)C(c1ccccc1)c1ccccc1 (stereo not given) (library stock concentration (final ~1000-fold dilution): 10 mM),NF-kB SEAP reporter activity,RAW-Dual [3]; agonist: LPS (TLR4) 0.1 ug/mL,0.182
same,NF-kB SEAP reporter activity,RAW-Dual [3]; [4],0.493
same,NF-kB SEAP reporter activity,RAW-Dual [3]; [7],0.146
same,NF-kB SEAP reporter activity,RAW-Dual [3]; [8],0.135
O=C(NC(NC(=S)Nc1ccc(F)c([N+](=O)[O-])c1)C(Cl)(Cl)Cl)C(c1ccccc1)c1ccccc1 (stereo not given),NF-kB SEAP reporter activity,RAW-Dual [2]; [9],0.707
same,NF-kB SEAP reporter activity,RAW-Dual [2]; [10],0.521
COc1cc(OC)c(/C=C2/C(=O)Nc3ccccc32)c(OC)c1 (library stock concentration (final ~1000-fold dilution): 10 mM),NF-kB SEAP reporter activity,RAW-Dual [1]; agonist: LPS (TLR4) 0.1 ug/mL,3.21
same,NF-kB SEAP reporter activity,RAW-Dual [1]; [4],2.56
same,NF-kB SEAP reporter activity,RAW-Dual [1]; [7],1.33
same,NF-kB SEAP reporter activity,RAW-Dual [1]; [8],1.92
COc1cc(OC)c(/C=C2/C(=O)Nc3ccccc32)c(OC)c1,NF-kB SEAP reporter activity,RAW-Dual [2]; [5],1.62
same,NF-kB SEAP reporter activity,RAW-Dual [2]; [6],1.67
COC1=C2CC(C)CC(OC)C(O)C(C)/C=C(\C)C(OC(N)=O)C(OC)/C=C/C=C(\C)C(=O)NC(=CC1=O)C2=O (stereo not given),NF-kB SEAP reporter activity,RAW-Dual [2]; [9],0.408
same,NF-kB SEAP reporter activity,RAW-Dual [2]; [10],0.395
COC1=C2CC(C)CC(OC)C(O)C(C)/C=C(\C)C(OC(N)=O)C(OC)/C=C/C=C(\C)C(=O)NC(=CC1=O)C2=O (stereo not given) (library stock concentration (final ~1000-fold dilution): 10 mM),NF-kB SEAP reporter activity,RAW-Dual [3]; agonist: LPS (TLR4) 0.1 ug/mL,0.227
same,NF-kB SEAP reporter activity,RAW-Dual [3]; [4],0.237
same,NF-kB SEAP reporter activity,RAW-Dual [3]; [7],0.13
same,NF-kB SEAP reporter activity,RAW-Dual [3]; [8],0.136
CC1OC(OC2C(Oc3cc(O)c4c(c3)OC(c3ccc(O)cc3)CC4=O)OC(CO)C(O)C2O)C(O)C(O)C1O (stereo not given),NF-kB SEAP reporter activity,RAW-Dual [2]; [5],0.993
same,NF-kB SEAP reporter activity,RAW-Dual [2]; [6],1.05
CC1OC(OC2C(Oc3cc(O)c4c(c3)OC(c3ccc(O)cc3)CC4=O)OC(CO)C(O)C2O)C(O)C(O)C1O (stereo not given) (library stock concentration (final ~1000-fold dilution): 10 mM),NF-kB SEAP reporter activity,RAW-Dual [1]; agonist: LPS (TLR4) 0.1 ug/mL,0.935
same,NF-kB SEAP reporter activity,RAW-Dual [1]; [4],1.04
same,NF-kB SEAP reporter activity,RAW-Dual [1]; [7],1.17
same,NF-kB SEAP reporter activity,RAW-Dual [1]; [8],1.13
Cn1cc(C2=C(c3ccc(Cl)cc3Cl)C(=O)NC2=O)c2ccccc21,NF-kB SEAP reporter activity,RAW-Dual [2]; [5],1.58
same,NF-kB SEAP reporter activity,RAW-Dual [2]; [6],1.99
Cn1cc(C2=C(c3ccc(Cl)cc3Cl)C(=O)NC2=O)c2ccccc21 (library stock concentration (final ~1000-fold dilution): 10 mM),NF-kB SEAP reporter activity,RAW-Dual [1]; agonist: LPS (TLR4) 0.1 ug/mL,3.23
same,NF-kB SEAP reporter activity,RAW-Dual [1]; [4],2.04
same,NF-kB SEAP reporter activity,RAW-Dual [1]; [7],1.49
same,NF-kB SEAP reporter activity,RAW-Dual [1]; [8],2.34
O=C1Nc2cc(Br)ccc2/C1=C1/Nc2ccccc2/C1=N\O (library stock concentration (final ~1000-fold dilution): 10 mM),NF-kB SEAP reporter activity,RAW-Dual [3]; agonist: LPS (TLR4) 0.1 ug/mL,0.459
same,NF-kB SEAP reporter activity,RAW-Dual [3]; [4],1.39
same,NF-kB SEAP reporter activity,RAW-Dual [3]; [7],0.695
same,NF-kB SEAP reporter activity,RAW-Dual [3]; [8],0.239
O=C1Nc2cc(Br)ccc2/C1=C1/Nc2ccccc2/C1=N\O,NF-kB SEAP reporter activity,RAW-Dual [2]; [9],1.24
same,NF-kB SEAP reporter activity,RAW-Dual [2]; [10],0.94
Cc1ccc(-c2n[nH]c3c2C(c2cccc(O)c2)N(c2ccc(C(=O)O)cc2)C3=O)cc1 (stereo not given),NF-kB SEAP reporter activity,RAW-Dual [2]; [5],0.889
same,NF-kB SEAP reporter activity,RAW-Dual [2]; [6],1.06
Cc1ccc(-c2n[nH]c3c2C(c2cccc(O)c2)N(c2ccc(C(=O)O)cc2)C3=O)cc1 (stereo not given) (library stock concentration (final ~1000-fold dilution): 10 mM),NF-kB SEAP reporter activity,RAW-Dual [1]; agonist: LPS (TLR4) 0.1 ug/mL,1.15
same,NF-kB SEAP reporter activity,RAW-Dual [1]; [4],0.926
same,NF-kB SEAP reporter activity,RAW-Dual [1]; [7],1.12
same,NF-kB SEAP reporter activity,RAW-Dual [1]; [8],0.864
CCOc1ccc2ccccc2c1C(=O)NC1C(=O)N2C1SC(C)(C)C2C(=O)O (stereo not given),NF-kB SEAP reporter activity,RAW-Dual [2]; [5],0.912
same,NF-kB SEAP reporter activity,RAW-Dual [2]; [6],1.07
CCOc1ccc2ccccc2c1C(=O)NC1C(=O)N2C1SC(C)(C)C2C(=O)O (stereo not given) (library stock concentration (final ~1000-fold dilution): 10 mM),NF-kB SEAP reporter activity,RAW-Dual [1]; agonist: LPS (TLR4) 0.1 ug/mL,1.19
same,NF-kB SEAP reporter activity,RAW-Dual [1]; [4],0.957
same,NF-kB SEAP reporter activity,RAW-Dual [1]; [7],1.15
same,NF-kB SEAP reporter activity,RAW-Dual [1]; [8],0.975
O=C(N/N=C/c1ccc([N+](=O)[O-])o1)c1ccc(O)cc1 (library stock concentration (final ~1000-fold dilution): 10 mM),NF-kB SEAP reporter activity,RAW-Dual [3]; agonist: LPS (TLR4) 0.1 ug/mL,3.8
same,NF-kB SEAP reporter activity,RAW-Dual [3]; [4],1.64
same,NF-kB SEAP reporter activity,RAW-Dual [3]; [7],1.38
same,NF-kB SEAP reporter activity,RAW-Dual [3]; [8],1.55
O=C(N/N=C/c1ccc([N+](=O)[O-])o1)c1ccc(O)cc1,NF-kB SEAP reporter activity,RAW-Dual [2]; [9],2.58
same,NF-kB SEAP reporter activity,RAW-Dual [2]; [10],2.03
Cc1cc(NC(=O)c2cccc(NC(=O)/C=C/CN(C)C)c2)ccc1Nc1nccc(-c2cccnc2)n1,NF-kB SEAP reporter activity,RAW-Dual [2]; [6],0.65
Cc1cc(NC(=O)c2cccc(NC(=O)/C=C/CN(C)C)c2)ccc1Nc1nccc(-c2cccnc2)n1 (library stock concentration (final ~1000-fold dilution): 10 mM),NF-kB SEAP reporter activity,RAW-Dual [1]; agonist: LPS (TLR4) 0.1 ug/mL,0.403
same,NF-kB SEAP reporter activity,RAW-Dual [1]; [4],0.183
same,NF-kB SEAP reporter activity,RAW-Dual [1]; [7],0.524
same,NF-kB SEAP reporter activity,RAW-Dual [1]; [8],0.284
CCOc1cc2ncc(C#N)c(Nc3ccc(OCc4ccccn4)c(Cl)c3)c2cc1NC(=O)/C=C/CN(C)C (library stock concentration (final ~1000-fold dilution): 2 mM),NF-kB SEAP reporter activity,RAW-Dual [1]; agonist: LPS (TLR4) 0.1 ug/mL,0.312
same,NF-kB SEAP reporter activity,RAW-Dual [1]; [4],0.82
same,NF-kB SEAP reporter activity,RAW-Dual [1]; [7],0.47
same,NF-kB SEAP reporter activity,RAW-Dual [1]; [8],0.699
CCOc1cc2ncc(C#N)c(Nc3ccc(OCc4ccccn4)c(Cl)c3)c2cc1NC(=O)/C=C/CN(C)C,NF-kB SEAP reporter activity,"RAW-Dual [2]; library stock concentration (final ~1000-fold dilution): 2 mM, cytotoxicity flag (confluency mask): not cytotoxic, agonist: Imiquimod (TLR7) […]",0.936
same,NF-kB SEAP reporter activity,"RAW-Dual [2]; library stock concentration (final ~1000-fold dilution): 2 mM, cytotoxicity flag (confluency mask): not cytotoxic, agonist: MPLA (TLR4) […]",0.339
Cc1ccc(S(=O)(=O)O)cc1.NC(=O)c1cccc2cn(-c3ccc(C4CCCNC4)cc3)nc12 (stereo not given),NF-kB SEAP reporter activity,RAW-Dual [2]; [5],0.663
same,NF-kB SEAP reporter activity,RAW-Dual [2]; [6],1.04

# Reference: the supplement of paper PMC10037445
